The list shows a part of the results. Values were computed here from the reads of four pooled replicates and scatter widely.

The target in this assay is T1, Pho4 (S. cerevisiae) (UniProt P07270).
T1 sequence: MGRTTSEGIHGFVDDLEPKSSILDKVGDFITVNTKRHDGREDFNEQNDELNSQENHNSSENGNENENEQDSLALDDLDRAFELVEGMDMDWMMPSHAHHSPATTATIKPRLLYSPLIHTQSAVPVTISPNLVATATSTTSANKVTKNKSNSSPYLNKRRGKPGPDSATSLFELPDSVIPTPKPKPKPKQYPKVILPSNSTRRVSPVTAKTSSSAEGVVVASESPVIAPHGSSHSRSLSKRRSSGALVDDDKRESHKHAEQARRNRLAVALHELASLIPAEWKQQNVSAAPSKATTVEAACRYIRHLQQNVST
Briefly: relative binding free energy (BET-seq); higher = weaker binding. The note with it: reference: library average.
As for TGGTTCACGTGACGAG, the “relative binding free energy” value was found to be 0.29 kcal/mol.
For TAGGTCACGTGGAGGT the value was 0.1 kcal/mol.
As to ATTATCACGTGATTTG, the “relative binding free energy” value worked out at 0.29 kcal/mol.
Next, TGTGCCACGTGCAGGT: -0.25 kcal/mol; CTCGTCACGTGGTTGG: -0.01 kcal/mol.
Consider AGGGGCACGTGTGTGG, for which the “relative binding free energy” value was -0.17 kcal/mol.
Next, TAGATCACGTGACGGG: 0.23 kcal/mol; GTCGTCACGTGGAAGT: 0.16 kcal/mol.
For the sequence GGGCTCACGTGCGGCG, the “relative binding free energy” value worked out at 0.14 kcal/mol.
For GTTTGCACGTGATATC the value was 0.19 kcal/mol; for ATCTGCACGTGGGGGC, -0.17 kcal/mol; for AGTAACACGTGAATGG, 0.18 kcal/mol.
For CTTCTCACGTGATTGT the value was 0.29 kcal/mol; for ATGATCACGTGTGTGC, 0.21 kcal/mol; for CGGCTCACGTGTGTTT, 0.16 kcal/mol.
For AGTGACACGTGGCTGA the value was -0.08 kcal/mol.
Consider TTAGGCACGTGAATTG, for which the “relative binding free energy” value stood at 0.1 kcal/mol.
For TGTGACACGTGGGATA the value was -0.12 kcal/mol.
Turning to TTATGCACGTGTAAAT, the “relative binding free energy” value stood at 0.15 kcal/mol.
Next, GGTGTCACGTGCGTCG: 0.07 kcal/mol; TATGTCACGTGAGGCT: 0.28 kcal/mol; TATAACACGTGGGGAT: -0.1 kcal/mol.
Next, GTTTGCACGTGTGCGC: 0.01 kcal/mol.
Next, GAGGGCACGTGGAACG: 0.1 kcal/mol.
Regarding CGGTCCACGTGTGTAG, the “relative binding free energy” value was 0.03 kcal/mol.
Regarding GCGTTCACGTGTGCTT, the “relative binding free energy” value is 0.34 kcal/mol.
Next, ATATTCACGTGGGAGG: 0.32 kcal/mol; TTGAGCACGTGAGTGC: 0.13 kcal/mol.
For AGGTGCACGTGTGTCC the value was -0.05 kcal/mol; for AAAGTCACGTGGGTAA, 0.07 kcal/mol; for TCGGTCACGTGGGGAG, 0.03 kcal/mol.
Next, GGGGTCACGTGTGTTG: 0.19 kcal/mol; CAGGGCACGTGTTTAG: -0.13 kcal/mol.
Consider TGGGGCACGTGAGTAG, for which the “relative binding free energy” value turned out to be 0.05 kcal/mol.
Take GAGCGCACGTGTTTTA: the “relative binding free energy” value was determined as 0.05 kcal/mol.
Next, CGGATCACGTGGTGAG: 0.03 kcal/mol.
In the case of GGGGGCACGTGTAAAT, the “relative binding free energy” value worked out at 0.1 kcal/mol.
For GGCGGCACGTGAGTGA the value was 0.14 kcal/mol.
Next, ATGGCCACGTGATGTT: 0.14 kcal/mol; TTATTCACGTGAGTGG: 0.45 kcal/mol; TACATCACGTGTTTAG: 0.21 kcal/mol.
As to CGGTGCACGTGGTGTA, the “relative binding free energy” value was -0.18 kcal/mol.
In the case of AGTTACACGTGGGAGA, the “relative binding free energy” value worked out at 0.15 kcal/mol.
For TTGTACACGTGAGAGG the value was 0.33 kcal/mol; for AGAGGCACGTGTTACA, 0.03 kcal/mol.
For the sequence AGAATCACGTGATTGT, the “relative binding free energy” value was 0.34 kcal/mol.
For TGAATCACGTGGGCGA the value was 0.07 kcal/mol; for GTGGTCACGTGGGTCG, 0.02 kcal/mol; for TTCCTCACGTGGTGTT, 0.16 kcal/mol.
Next, ATAGGCACGTGAGGTA: 0.09 kcal/mol.
For AGTATCACGTGGGGAT the value was 0.04 kcal/mol; for TCTTTCACGTGAGTCT, 0.43 kcal/mol; for AGTCTCACGTGGGGGA, 0.08 kcal/mol.
On to TCGTTCACGTGGCGGG, for which the “relative binding free energy” value was 0.24 kcal/mol.
For GCAAGCACGTGGGGTA the value was -0.24 kcal/mol.
For AGGGACACGTGGGAAG the value was -0.04 kcal/mol; for ATCGTCACGTGCTGGG, 0.14 kcal/mol.
On to GCTGGCACGTGTGTAG, for which the “relative binding free energy” value was -0.01 kcal/mol.
Regarding ATAAACACGTGAAGGT, the “relative binding free energy” value is 0.39 kcal/mol.
For AGGGACACGTGTTGAT the value was 0.06 kcal/mol.
As for GGGTGCACGTGGCGCG, the “relative binding free energy” value was -0.14 kcal/mol.
Next, AAAGGCACGTGAGGGG: 0.1 kcal/mol.
For AGGGACACGTGGTTTT the value was 0.08 kcal/mol; for TTACGCACGTGGGAGT, -0.3 kcal/mol.
For GGGAGCACGTGAATGT the value was 0.22 kcal/mol; for GTGTGCACGTGAAGAG, 0.27 kcal/mol.
Take TAGTACACGTGAGTAA: the “relative binding free energy” value is 0.34 kcal/mol.
For CTCGGCACGTGAAAGG the value was 0.35 kcal/mol; for AGCTCCACGTGGGGGG, -0.15 kcal/mol.
For AGTGACACGTGCATGG the value was -0.16 kcal/mol; for GGTTTCACGTGAACTT, 0.55 kcal/mol; for CAGGACACGTGGGAGG, 0.01 kcal/mol.
For TCTGTCACGTGAAGTT the value was 0.24 kcal/mol; for TTGAGCACGTGATGTA, 0.04 kcal/mol.
Turning to TGGTTCACGTGGATAC, the “relative binding free energy” value is 0.21 kcal/mol.
Next, CAATTCACGTGGGGGT: 0.19 kcal/mol.
For TCTAGCACGTGATTGT the value was 0.07 kcal/mol; for GTGTGCACGTGCGGGC, -0.04 kcal/mol.
Next, TATGTCACGTGGGAAT: 0.07 kcal/mol; TTTATCACGTGTCGGC: 0.28 kcal/mol.
With CTTATCACGTGTGATG, the “relative binding free energy” value was determined as 0.09 kcal/mol.
Next, TGGTGCACGTGGGTCC: -0.14 kcal/mol.
As to CTTATCACGTGATGTT, the “relative binding free energy” value is 0.21 kcal/mol.
With GGGTCCACGTGGGGGC, the “relative binding free energy” value came out at 0.01 kcal/mol.
For AAAGGCACGTGGGTTT the value was -0.26 kcal/mol.
For TGAATCACGTGGTTGG the value was 0.2 kcal/mol.
Next, TGGTGCACGTGTTTGT: -0.01 kcal/mol; TGTTACACGTGATGGT: 0.19 kcal/mol; ACGGTCACGTGCGTTT: 0.1 kcal/mol.
In the case of CAGGACACGTGCGGGG, the “relative binding free energy” value is -0.08 kcal/mol.
TAAGCCACGTGAGTTT: the “relative binding free energy” value is 0.19 kcal/mol.
For CGAGGCACGTGGTTTG the value was -0.25 kcal/mol.
Turning to TTTGTCACGTGAGTGG, the “relative binding free energy” value came to 0.27 kcal/mol.
For TTTTTCACGTGTTTAG the value was 0.27 kcal/mol; for GTGAGCACGTGTACGG, -0.07 kcal/mol; for GTGGGCACGTGGTAGC, -0.12 kcal/mol.
For GTGATCACGTGCGAGT the value was 0.09 kcal/mol; for TTGCTCACGTGGATTA, 0.27 kcal/mol.
With TTTATCACGTGATTGG, the “relative binding free energy” value was found to be 0.2 kcal/mol.
Next, CAGTGCACGTGTAGGT: -0.06 kcal/mol.
Consider CGGGACACGTGTGTCG, for which the “relative binding free energy” value worked out at 0.04 kcal/mol.
For ATGTCCACGTGAAGTT the value was 0.26 kcal/mol.
In the case of CTTATCACGTGGGCGG, the “relative binding free energy” value is -0.03 kcal/mol.
Next, GGGGGCACGTGAACTT: 0.13 kcal/mol.
Next, AATGCCACGTGGTGGT: -0.11 kcal/mol.
Next, TAGATCACGTGTCGGA: 0.25 kcal/mol; TGTAACACGTGTGGAG: -0.02 kcal/mol; CATGTCACGTGAGTTA: 0.3 kcal/mol.
As for AAATGCACGTGGCTGG, the “relative binding free energy” value is -0.05 kcal/mol.
Next, TGGACCACGTGGCGGG: -0.06 kcal/mol; GGGGACACGTGTAAGG: 0.08 kcal/mol; CGTTGCACGTGATCTT: 0.12 kcal/mol.
Turning to TTAGGCACGTGGTGCA, the “relative binding free energy” value was -0.31 kcal/mol.
For TGGTTCACGTGTCATA, the “relative binding free energy” value worked out at 0.26 kcal/mol.
For TTATACACGTGACATT the value was 0.24 kcal/mol.

The record behind these values is the BET-seq Pho4 binding data (Le et al. 2018).
